The full ranking holds about 33,000 sequences; the median of “E-score (-0.5 to 0.5)” is about -0.036, and the highest 2% start at about 0.37. The list shows a part of the results.
Each sequence was assayed against T1, Yer064c (UniProt P40041) (assay: PBM E-score (8-mer binding enrichment) (E-score (-0.5 to 0.5)); higher = stronger / more preferred TF binding; most listed sequences are background and not binding sites). Conditions: protein concentration: 200 nM; construct: GST-full length.
T1 sequence: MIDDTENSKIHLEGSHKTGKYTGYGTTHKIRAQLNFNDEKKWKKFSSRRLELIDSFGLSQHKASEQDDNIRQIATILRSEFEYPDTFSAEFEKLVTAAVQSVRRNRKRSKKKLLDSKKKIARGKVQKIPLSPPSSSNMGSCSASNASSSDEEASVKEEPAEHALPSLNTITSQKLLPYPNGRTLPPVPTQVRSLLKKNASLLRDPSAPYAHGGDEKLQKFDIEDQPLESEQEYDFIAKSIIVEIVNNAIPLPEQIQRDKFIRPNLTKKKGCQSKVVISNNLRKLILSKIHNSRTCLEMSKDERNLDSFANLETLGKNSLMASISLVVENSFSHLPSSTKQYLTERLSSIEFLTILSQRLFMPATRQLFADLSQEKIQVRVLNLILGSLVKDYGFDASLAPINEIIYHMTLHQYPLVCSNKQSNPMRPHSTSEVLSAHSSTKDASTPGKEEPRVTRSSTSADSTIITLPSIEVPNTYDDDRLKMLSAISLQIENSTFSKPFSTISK
Method in brief: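 Using PURExpress in vitro transcription/translation, GST-tagged yeast transcription factors were made in full-length or DNA-binding-domain form. These were applied at about 100-200 nM to double-stranded universal all-10-mer Agilent arrays, and bound protein was detected with fluorescent anti-GST. Scans were normalised with masliner before the Universal PBM Analysis Suite assigned E-scores to ungapped eight-base words pooled with their reverse complements.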

Row | Sequence | PBM E-score
1 | GTGAATGA | 0.14
2 | ACGTTTAC | -0.123
3 | ATTCCCGA | -0.0261
4 | CATACACA | 0.113
5 | AATTAAAA | 0.034
6 | TGTTTTAA | 0.138
7 | CGAATGGA | -0.0457
8 | AATGAATG | -0.0293
9 | CATTAGAG | 0.0235
10 | CTTAGAAC | 0.0672
11 | CCTCGGTC | -0.143
12 | CTAAAACA | 0.131
13 | AGACTCAA | 0.444
14 | ATGTCGAA | 0.0855
15 | ACCCACCA | 0.0966
16 | CATCCGGA | -0.0769
17 | TACACTCA | 0.261
18 | GGGGCGGA | -0.283
19 | AGTAGTCC | 0.302
20 | ACCACGAT | 0.0506
21 | GCTCGTGA | 0.0795
22 | CTCTAGTA | -0.0139
23 | AATTCTTC | -0.0359
24 | CTCTAACA | 0.0233
25 | CTGAAGGA | -0.0183

Row | Sequence | PBM E-score
26 | CATTCTGG | -0.0961
27 | AAGTGGCG | -0.181
28 | CGATATGC | -0.107
29 | CATTACAC | 0.16
30 | GGTTCTAA | -0.0224
31 | CCTCTTTC | -0.185
32 | GCGTGAGC | 0.0182
33 | CAGTTTGG | -0.0794
34 | GTCCACCA | -0.0759
35 | AAATGCTG | -0.0597
36 | AGCGATGG | -0.023
37 | CTCAGTAA | 0.129
38 | CTGGCCGC | -0.163
39 | GAATAAGA | 0.024
40 | CTTGGTGA | 0.179
41 | CCTGAGTA | 0.234
42 | AATTAAGC | 0.00193
43 | ACGTTGAG | 0.0564
44 | AAGCCAAA | -0.0544
45 | AACTATGC | -0.153
46 | CTTTAACC | 0.0642
47 | CCGGAAGG | -0.135
48 | TAGAATAA | -0.0152
49 | ATAAACTG | -0.071
50 | CATAGCCC | -0.137

Row | Sequence | PBM E-score
51 | AAATTATA | -0.00406
52 | CATCTGGC | 0.179
53 | CATTTCGA | -0.0334
54 | TCATTGAA | 0.214
55 | GAGCGGGA | -0.0855
56 | CTGGAATC | 0.123
57 | CACAGGCC | -0.178
58 | GGGCACAC | -0.207
59 | ACCCTTTA | -0.0479
60 | ACGGCAAA | -0.28
61 | AGCCCCCC | -0.221
62 | CAATATCG | -0.0208
63 | ATTATAAG | 0.109
64 | GCTTAGGA | -0.062
65 | GAGGGCAC | -0.327
66 | CCATTACA | 0.12
67 | CGGAGCCA | -0.107
68 | CATCGTGC | -0.0833
69 | ATCCCGCA | -0.0251
70 | CCTATGCG | -0.057
71 | AACCGTCG | -0.191
72 | GTCCTTGA | 0.138
73 | AAAAGCGA | -0.00511
74 | ATGCCCCC | -0.194
75 | AACCCCCC | -0.171

Row | Sequence | PBM E-score
76 | CTAACTGC | -0.135
77 | CGCAGAGC | 0.00552
78 | GCATCTTA | -0.0391
79 | ACCTACAG | -0.0134
80 | CTCCGTGA | 0.136
81 | CATCAAGG | -0.0212
82 | GTACTAAC | 0.128
83 | AATGGTAG | -0.0105
84 | GTCGCTGA | 0.166
85 | GACCACAA | -0.0302
86 | CCAATTAC | -0.0578
87 | ACATACAG | -0.105
88 | GAGACTAC | 0.36
89 | CCGAAAAC | -0.0537
90 | AAGACTGA | 0.347
91 | GAACCCGA | -0.044
92 | CAGAACGC | -0.146
93 | GCACTACC | 0.0252
94 | AAAAGAAA | 0.0748
95 | AAGCAGCG | -0.0466
96 | ACAGTCGA | 0.0356
97 | AGGTAACA | 0.0227
98 | GAATGAAC | 0.052
99 | GCAATCCC | -0.118
100 | CGCGAACC | -0.176

Row | Sequence | PBM E-score
101 | AAGTTTTC | -0.186
102 | CGACAAAG | -0.0777
103 | ATTCCTGC | -0.0134
104 | CTGTTCTC | -0.075
105 | CAAATCTA | 0.0314
106 | CCCTCGGC | -0.294
107 | GAGTCTCC | 0.419
108 | GCAAACAC | -0.16
109 | AAAGTCCT | 0.0605
110 | ACGCAAAG | -0.1
111 | ACGACTTG | 0.17
112 | GTGTCTAA | 0.189
113 | GTCCTATA | -0.0544
114 | AAGGGAGT | 0.139
115 | CATGAAGA | 0.136
116 | AAATGCAA | 0.0368
117 | CGACGATA | -0.0558
118 | AACGTGGA | -0.148
119 | AGACGAAG | 0.0921
120 | CGCGTATC | -0.177
121 | ATTCCGGG | -0.0471
122 | AGGTAATC | 0.25
123 | AGTTCTGA | 0.131
124 | CAACTTCA | -0.00156
125 | TGGGAACA | -0.196

Row | Sequence | PBM E-score
126 | ATAAGACA | -0.0428
127 | AAAGGGCA | -0.0738
128 | CTGCTTAC | -0.105
129 | AGCCCACG | -0.024
130 | ACAACAGC | -0.0722
131 | ATCAATCC | -0.0246
132 | CCGTCGAA | -0.104
133 | AAATATTA | 0.0244
134 | ACGAGGTA | -0.0549
135 | GTGGACAC | -0.203
136 | CCCCATAG | -0.199
137 | CGTTCCCA | -0.185
138 | CAACAATG | -0.0783
139 | CATATTTC | -0.0612
140 | CCGATTGC | -0.0943
141 | AGCATCAG | -0.067
142 | ATAGTCCA | 0.213
143 | CTTGAAAG | 0.0114
144 | CTATAGGC | -0.137
145 | GCGCGAGC | -0.143
146 | CCACCGAG | -0.0439
147 | GGGCAACC | -0.122
148 | ACTTGTAT | 0.11
149 | ACACTATG | 0.133
150 | AGCTCAAG | 0.00652

Row | Sequence | PBM E-score
151 | CCGCAAAC | -0.036
152 | TACCCAAA | 0.041
153 | CTCACTCC | 0.0635
154 | GGGGTGAC | 0.171
155 | CTGAGTTC | 0.104
156 | GCACGCGA | -0.0742
157 | CTAAGTCC | 0.148
158 | AGCACGGA | -0.164
159 | CCCTGGAA | -0.187
160 | CGTTGTCC | 0.00374
161 | TGGATAAA | 0.0283
162 | ACGTATCC | -0.214
163 | ACACACCC | 0.111
164 | CCCGGGAC | -0.261
165 | TCACAAAA | 0.22
166 | CTTGTGTC | -0.00569
167 | GTACACTA | -0.00017
168 | TCCATAGA | 0.0191
169 | CCTGCCGA | -0.0807
170 | CTATGGCC | -0.196
171 | CCCGAGGC | -0.0736
172 | CCAACTCG | 0.0497

Reference: the supplement of paper PMC3334620
